83 variants from the RNAGym collection of RNA variant scans (doi:10.7554/elife.90254) can be followed below.

The source gives no read counts; variants with many changes may rest on few reads.

The labels stand for the following.
B1: OR4K15 (parent)
chain: GUUAACGGUCAUAGGCCAUGGAAACUAGGAGCACCAUUUCGCUGCCAGUGAAGAAAUGAACAAAGAAAAUCUGGGCCAGGCAGGCAUCAAAAGAAAUAGUCUUGCGCUCAACCAGAAAGUCUGUAAUCAUUUUAAGGGUA

In this series the parent is B1. The series is described as follows: self-cleavage, relative activity (ratio to wild type); higher = more cleavage; in vitro, sequencing; the parent is a self-cleaving ribozyme.
Take G1A G44A A110G: the self-cleavage came to 0.24.
In the case of U2A U39C U43C A114U it was 0.05; in that of U2G U122A U133A, 1.4.
In the case of U2C U12A U39G, the self-cleavage turned out to be 0.87.
Consider U2C G7A A64G U70C U124C, for which the self-cleavage amounted to 0.45.
In the case of U2A A18G A30G A52U A60G A114U A116G it was 0.05.
Next, U2C U37C G136U: 1.71; U2C A60G A78G: 0.33.
On to U2A U39C A54G A68G U70A A82G A94G, for which the self-cleavage is 0.11.
In the case of U2C U12A U19G G28A G74A A89G it was 0.36.
Regarding G1U A56G U108A A111G, the self-cleavage came to 0.09.
Next, U2A A23G A64U U124C A135G: 0.45; G1U A59G A60G: 0.95.
Next, U2C A11G U38C U43A A82G: 0.98.
Next, U2C U38C U132A: 1.4.
As for U2C A13G G41A A55U A95G, the self-cleavage is 1.16.
In the case of U3A U87A A114U it was 0.03; in that of U2C U39C A54G A94U G99A, 0.7.
In the case of U2C U49C A60U it was 1.39; in that of U2C U19A U127A, 2.81.
Regarding U2C A68G A96G, the self-cleavage stood at 0.38.
In the case of G1U A13G A140G it was 1.43; in that of G1A A33U U43C U132C, 1.79.
For U2C A18U A23G C88U G138A, the self-cleavage amounted to 1.51.
For U2C A69G U87C C121U, the self-cleavage is 1.19.
In the case of U2A U12A G138U, the self-cleavage came to 1.25.
Turning to U2C G74A A86G A125G A135U, the self-cleavage stood at 0.04.
As for U2C A18C U70A, the self-cleavage is 0.37.
Next, U2A A30G U43A U127A A129G: 2.15.
Next, U2C A62G A90G U108C: 0.03; U2A U97C C107U U108C: 0.04; U2C G14A A64G A86U: 0.6.
Next, U2C U39A A55G A110G A118G U132C: 0.14; G1A A47G A118G G138A: 1.35; U2C A47U U57G A69G: 0.35.
Consider U2A U43A U131C, for which the self-cleavage is 1.13.
In the case of U2A A52G U70C it was 1.3; in that of U2C A36G A90G, 0.74; in that of U2A A116G U130C, 0.39.
Next, U2C A11G A129G: 0.14; U2A U9A C40A A47G A51G A52U: 1.12; U2C A27G A78U A91G G106C A118G: 0.
In the case of U2C G99A A111U U130C it was 0.01; in that of U2C U39C U43A, 0.74; in that of U2C A33G A68G U102C U122C, 0.93.
Consider U2C U97C U108C, for which the self-cleavage was 0.02.
As for U2G A22U U131C, the self-cleavage came to 1.57.
As to U3C A5G A55G A96G, the self-cleavage worked out at 0.95.
In the case of U2A U9C A89G it was 1.6; in that of U2C C17A G53U A67G, 0.94.
Next, U2C U39A U87C: 0.8.
Next, U2C U100C A129G: 1.17; U2C U9C A69G: 1.6; U3A A47G U100C: 1.17.
As to G1U A67G C77A U122C, the self-cleavage is 0.78.
Next, U3A A116C U132A: 0.02; U2C A30U A66G: 1.31; U2C A56G A92G: 0.47.
As to U3A A23G U57C A59G A64G A96G, the self-cleavage was 0.09.
In the case of U2C U37C A82G U132A it was 0.25.
Next, G1C A18G U103C: 0.36; U3A G58A A67G: 0.8.
Next, U2C A5G A59G A66G U120C: 1.38.
For U2C G7U A27U U37C A55G A114C A134U, the self-cleavage is 0.04.
With G1A U2A C46U A63G A140C, the self-cleavage came to 0.76.
Next, U2A U39C A78G A86G G136U: 0.45; U2C A23U A24G U37C U43A: 0.87; U2C A52C A56G: 1.09.
In the case of U2C A24G A67U A110G it was 0.25.
Take U3A A11G A33U A47U A56G A78U U124A: the self-cleavage worked out at 0.09.
In the case of U2C A66G C113U it was 0.06.
Next, U2C U43C A60U A126U U130C U131C: 0.63; U2C A11G U124A: 0.3.
Consider U2C G41A A54G A62G A64G A96G, for which the self-cleavage stood at 1.11.
In the case of U2C U38C A90G it was 1.27; in that of U3A U124A U133C, 0.53.
In the case of U2C U37C A140G it was 0.79.
Take U2A A5G U127A A135U: the self-cleavage came out at 0.96.
Next, U2C U12C G48A A54G: 1.15; G1A U9C A56G A98G A116G U122C U139C: 0.15; U2C A5G A33G A52G A91G: 1.07.
In the case of U2A A36G A111G U132G it was 0.08; in that of U2A A89G U130C, 1.21.
